According to PMC9984488:
Results are given in words; binding and its absence hold for the method and conditions named. In cells and extracts the contact can be indirect. Some binding calls cover weakened binding; strength is not graded here. Each block holds one binder with its values, some of them ahead of it.

Sequences of proteins named here, by UniProt entry; tags and fusion partners are left off. A change or cut given only in a name is not applied to a line headed by its entry.
UniProt Q9UJU6: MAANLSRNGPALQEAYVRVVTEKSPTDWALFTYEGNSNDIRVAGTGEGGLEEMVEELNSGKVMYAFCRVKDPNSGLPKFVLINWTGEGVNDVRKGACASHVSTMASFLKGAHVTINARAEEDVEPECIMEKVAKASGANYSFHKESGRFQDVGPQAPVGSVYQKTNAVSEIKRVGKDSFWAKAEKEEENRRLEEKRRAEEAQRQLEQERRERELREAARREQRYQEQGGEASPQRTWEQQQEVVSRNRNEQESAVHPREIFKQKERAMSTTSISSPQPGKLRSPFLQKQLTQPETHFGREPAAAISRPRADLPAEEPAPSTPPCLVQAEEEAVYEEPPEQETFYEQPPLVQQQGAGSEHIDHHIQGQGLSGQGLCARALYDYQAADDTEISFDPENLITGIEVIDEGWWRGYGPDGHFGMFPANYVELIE

Experiments:
GST-HIP-55 (human) = GST-HIP-55 (human) (UniProt Q9UJU6); test: pull-down; GST pull-down from lysates of transfected HEK293A cells; Glutathione-Sepharose 4B, 4 °C 4 h, three washes with lysis buffer (1% NP-40, 150 mM NaCl, 100 mM Hepes); immunoblotting
[1] = biological target: GST-HIP-55AA (S269A/T291A-mutated HIP-55) (human) (UniProt Q9UJU6); test: as above

binding (GST-HIP-55 (human)): no binding
B1: 14-3-3γ/K50E mutant (protein, UniProt P61981 1-247)
chain: MVDREQLVQKARLAEQAERYDDMAAAMKNVTELNEPLSNEERNLLSVAYENVVGARRSSWRVISSIEQKTSADGNEKKIEMVRAYREKIEKELEAVCQDVLSLLDNYLIKNCSETQYESKVFYLKMKGDYYRYLAEVATGEKRATVVESSEKAYSEAHEISKEHMQPTHPIRLGLALNYSVFYYEIQNAPEQACHLAKTAFDDAIAELDTLNEDSYKDSTLIMQLLRDNLTLWTSDQQDDDGGEGNN

binding (GST-HIP-55 (human)): binds
binding [1]: no binding
B2: 14-3-3τ (protein, UniProt P27348 1-245)
chain: MEKTELIQKAKLAEQAERYDDMATCMKAVTEQGAELSNEERNLLSVAYKNVVGGRRSAWRVISSIEQKTDTSDKKLQLIKDYREKVESELRSICTTVLELLDKYLIANATNPESKVFYLKMKGDYFRYLAEVACGDDRKQTIDNSQGAYQEAFDISKKEMQPTHPIRLGLALNFSVFYYEILNNPELACTLAKTAFDEAIAELDTLNEDSYKDSTLIMQLLRDNLTLWTSDSAGEECDAAEGAEN
